Measurements taken from the RNAGym collection of RNA variant scans (doi:10.7554/elife.90254).
The source gives no read counts; variants with many changes may rest on few reads.

B1: OR4K15 (parent)
chain: GUUAACGGUCAUAGGCCAUGGAAACUAGGAGCACCAUUUCGCUGCCAGUGAAGAAAUGAACAAAGAAAAUCUGGGCCAGGCAGGCAUCAAAAGAAAUAGUCUUGCGCUCAACCAGAAAGUCUGUAAUCAUUUUAAGGGUA

Variants of: B1
Assay: self-cleavage, relative activity (ratio to wild type); higher = more cleavage; in vitro, sequencing; the parent is a self-cleaving ribozyme

Row | Variant | self-cleavage
1 | A13G U39C A78C C121U | 0.39
2 | A18C A54G A62C A91G | 1.02
3 | G15U U38C U39C A67G U103C U132C | 1.05
4 | A13U A110U A116G U139C | 0.53
5 | A18C A62G C77U A82G U87C A114G A117G | 0.3
6 | C17U A23C A30G A47G A82G A111G | 0.02
7 | U12C U87C U130G A140G | 2
8 | A13G A23G U70C G104A | 0.02
9 | A18G A24C A64G A68G U70C | 0.82
10 | U12C U127C U131C | 0.82
11 | A13G A22G G29A A30U A111G U127C | 0.02
12 | A13G U19A A22G A59G U131C | 1.35
13 | G15C A82U A96G | 0.33
14 | C16G A23G A24G | 0.8
15 | C17U A30G A82G | 0.75
16 | G14A A23G A54G A63G A66U A98G | 0.41
17 | A13G U87A U108C | 0.09
18 | A13U A22G U38C A51U U70C A90G A94G U132A | 0.48
19 | A18G A62C A94G | 1.45
20 | C16U C40U A52G A63G U108C U132C | 0.04
21 | A18C U38C A55U A64U A78G A114U | 0.04
22 | A13C A22G U39C U49A | 1.21
23 | A18C A67G U102C A116G | 0.62
24 | U12G A68G U70C A96G | 0.59

Row | Variant | self-cleavage
25 | C17U A52G U122C | 0.46
26 | A18G A47G A82G U100C A111G A118G | 0.01
27 | A18C G106U U130C | 0.01
28 | A13G U70C U102A | 0.33
29 | A13G A86G U100C | 1.73
30 | C16U C17A G136U | 1.4
31 | A18C A23G U49C G106U A117G | 0
32 | A18G A27G U120C U131C | 0.56
33 | C16U A47G U102A U122C | 0.32
34 | A13G U26C U87C A94G U127A | 1.7
35 | C16U G31A U39A A114G | 0.18
36 | C16U A23G U43A U49C U57A | 0.17
37 | A18G A36G A98U A114U A116G | 0.02
38 | A13G A117G U122C | 1.11
39 | A18G A59G U102C | 1.25
40 | A13G U43C C113U | 0.4
41 | A13G G75C A89G A111G A116G | 0.04
42 | C17A U122C U124C | 0.6
43 | A13G A30G A111G | 0.04
44 | C17U A47U A59U U120A | 0.75
45 | C16U U19C A66G A90G U120C U130C | 0.72
46 | A13G A54G A68U G137A | 1.2
47 | A13G A23G A92G | 1.42
48 | A13G A18G A24G | 0.56

Row | Variant | self-cleavage
49 | A18G A22G A24G A92G U124C | 0.3
50 | A13U A116G A118G A129U | 0.32
51 | G14A U37C A59G | 1.66
52 | C17U A111G U122G A135U | 0.02
53 | C17A A51G A96G | 0.77
54 | A13G A62G U124C | 0.99
55 | G15A U39C A68G U122C | 0.98
56 | U12G A96G U100C | 1.69
57 | U12C U120A U131C | 0.38
58 | A18G A22G A27U U37C U87C | 0.36
59 | A18C A64U A96G A126U A140G | 1.52
60 | A18C G83A U87C A94G | 1.3
61 | A18G A33G U87A U120C | 0.59
62 | A13G A126G U132C | 0.85
63 | A18C G80A A126G | 0.15
64 | A13U A60G A118G | 0.91
65 | A13U A95G A126G | 1.82
66 | A13U A63G A68G U108C U131C | 0.02
67 | A18G A23G A90G | 0.28
68 | C17U A68G A110U U122C | 0.66
69 | C16U G29U A117G G138A | 1.4
70 | G14A A30G U120C | 0.77
71 | A13G A66U U102C | 1.75
72 | A13G G41A U57C A91G U122C U127C | 0.28

Row | Variant | self-cleavage
73 | G14A A23G A33U A116G U130C | 0.68
74 | A13U A56G U103C G106A U124C | 0
75 | A18C U87C U133A | 1.41
76 | A13G A22U U70A U100C | 1.36
77 | A13G G83A U103A U122C | 0
78 | A13G A66G A89G A114U A116U A125U | 0.03
79 | A18C A66U U102C A111G | 0
80 | A13U U37C U38C | 1.21
81 | A13G U57C A62G U72A A91G A92G A118G | 0.07
82 | G15A A36U A95G A116G U131C | 0.78
83 | A13G U72A U130C | 0
84 | C17A A18G U72A A86G A95G A117C | 0.06
85 | A18G A47G A67G U122C | 0.38
86 | G14A A54G A110G | 0.12
87 | A13G A90G U103C | 0.83
88 | A18C A62U A82G U131C | 0.14
89 | A13G G75C A89U U132A | 0.17
90 | U12G U37C A94U A111G | 0.18
91 | C17U U39G U49C | 1.12
92 | U12C U122A G137U | 1.1
93 | A13U U43C A96U | 2.14
94 | A18G A51G A94G U130C | 1.12
95 | A13U C16G A116G | 0.92
96 | A18G A55G A60G A67U A90G A116G | 0.05

Row | Variant | self-cleavage
97 | A13G G15A A33G A56G A117G | 0.52
98 | A13G A18U A23G A30U A90G G119A | 1.34
99 | A13G A24G A51U A62C | 0.96
100 | G15A U43C U124A | 0.9
101 | A13G A18G A52U A69G | 0.44
102 | A13G A59G A78U U127A | 0.89
103 | A18G A54G A114U A126G | 0.06
104 | A18G A51C A82G A90G A111G A126G | 0.02
105 | G15A A60G U103C U132C | 0.69
106 | U12G G14A G44U A78G A96U | 0.46
107 | A18G A24G C46U A78G A96G U131C | 0.26
108 | C16G A91G U108C U124A | 0.03
109 | C16U A59U A96G A111G | 0.08
110 | A18G A54G A94G U127A | 1.97
111 | C17U A23G A30C U100C | 1.6
112 | A13G A54G U57C U103C | 1.62
113 | A18G A36U U122C | 1.8
114 | C17U A22U A62U | 0.66
115 | A13G A22U U43C A98G | 0.83
116 | A18G A54G U57A | 1.11
117 | U12G U38C U139C | 1.64
118 | A18G A60G A96G U127C | 0.46
119 | A13G A54G A59G | 1.42
120 | C17U U39C A52U | 0.79

Row | Variant | self-cleavage
121 | A13U U19C A24G A62G A125G | 0.55
122 | C16A U39C A78U | 0.08
123 | G14U A27G A111G | 0.06
124 | A13U A23G A24G A30G G104A C121U U131C | 0.06
125 | U12C U70C A82U A89U A140C | 0.3
126 | G14A A68G A111U | 0.12
127 | A13G U38A A91C C105A A129G | 0.02
128 | A13G A24G A27G A52G U132C | 2.05
129 | G15A A23G C71U U102A A117G A140G | 0.17
130 | A18G A62G G79A A96G C113U U132C | 0.01
131 | A18G A33U A63G A118G U124C | 0.76
132 | A13G U38C A56G A110U | 2.06
133 | A13G A56G A89U A91G A114G | 0.49
134 | C16U U39C A94G A114G U124C | 0.55
135 | C16U U43C A126G U132C | 1.45
136 | A18C U38C U124C | 1.26
137 | C16U U38C U72A A91G G138A | 0.07
138 | A13G A24G U43C | 1.25
139 | A13G A91G U132C | 0.92
140 | A13G U57C A66G | 0.25
141 | G15A A90G U122C | 1.04
142 | A18G A47U A62C A90G A135U | 0.51
143 | C17U A22G U37C U87C A110G A126G U131C | 0.02
144 | A13G A55U A59U C71U | 0.21

Row | Variant | self-cleavage
145 | A13G A82U A126G A140G | 0.18
146 | G14U A24G A56G A116G U130C | 1.02
147 | A18G A59U C128U | 0.65
148 | C17A U70C A89U | 0.27
149 | A13G A27U A134G | 1.4
150 | G15A A82U A95G U103C | 0.06
151 | A13U A47U A69C A98G A117G | 0.77
152 | A18G A47G A52G C76A A98G U131C | 0.08
153 | A13G A64G G84C A135G | 0.22
154 | A18C A55G U87C A110G U122C | 0.03
155 | A18G A23G A55G A91G A94G | 0.66
156 | A13G A22U A96G C121U | 1.78
157 | G15U C45U A96U | 0.83
158 | G14U A23G A52G A96U U120C | 1.06
159 | C17U U39C U72C | 0.51
160 | A13G U19A A24G A55C A60G A66G | 1.24
161 | G15A A47U U49A A62G A86C U108C A116G A129U | 0
162 | A18G A33G A52G A62U U102G U122C U132C | 0.05
163 | A18C A52C A69G A86U | 0.1
164 | U12G G15U A51G U57C A86G A116G A118G A126U | 0.45
165 | A18G A60U U132C | 2.15
166 | A18G A24C A67G A117G | 1.78
167 | C16U A27C A33G A63G U108C | 0
